Experimental data from the BET-seq Pho4 binding data (Le et al. 2018).
The list shows a part of the results. Values were computed here from the reads of four pooled replicates and scatter widely.

Biological target: T1, Pho4 (S. cerevisiae) (UniProt P07270)
T1 sequence: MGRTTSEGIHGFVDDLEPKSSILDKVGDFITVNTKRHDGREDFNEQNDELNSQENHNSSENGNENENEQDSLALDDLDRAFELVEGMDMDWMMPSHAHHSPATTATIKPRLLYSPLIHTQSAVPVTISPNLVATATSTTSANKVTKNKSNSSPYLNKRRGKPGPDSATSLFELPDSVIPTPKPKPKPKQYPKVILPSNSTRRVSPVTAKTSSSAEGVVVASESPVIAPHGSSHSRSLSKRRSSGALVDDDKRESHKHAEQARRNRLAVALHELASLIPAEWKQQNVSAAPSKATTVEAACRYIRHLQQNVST
Assay: relative binding free energy (BET-seq); higher = weaker binding
Settings: reference: library average

Sequence	relative binding free energy [kcal/mol]
TGTGTCACGTGACTTA	0.28
TTGAACACGTGGATGG	0.01
CTTTGCACGTGTAAAG	0.17
CTATACACGTGTTGGG	-0.03
ATATGCACGTGTGCGT	-0.09
TAATGCACGTGGATGG	-0.05
GATTACACGTGTGTAG	0.24
TTCGTCACGTGAATTG	0.24
GTGCTCACGTGGGATG	0.19
TCTTACACGTGTTGTT	0.01
TGATGCACGTGGTGAG	-0.03
GTGCGCACGTGTGCTG	-0.14
TTTGCCACGTGAAGTG	0.09
GGAAGCACGTGTATGT	0.03
ATGTGCACGTGGAGAA	-0.08
TGGTTCACGTGGTCTA	0.22
TATGCCACGTGGTGTC	-0.14
ATGAACACGTGGGGTA	-0.2
CTCGACACGTGGGGGA	-0.11
TTTTGCACGTGCGAGA	0.16
TGGTTCACGTGTGGCC	0.29
GGGTACACGTGAGTAA	0.27
GTTTTCACGTGTGGCG	0.22
GCTGGCACGTGGGTCT	-0.21
TAGGGCACGTGTTCAG	-0.16
TAGGTCACGTGGGACA	-0.05

Sequence	relative binding free energy [kcal/mol]
GTTTTCACGTGTGATG	0.44
AGGTGCACGTGTTTGG	0.06
TTGAGCACGTGATGGC	0.13
TTATACACGTGGACGG	0.08
ATATGCACGTGCAGTG	-0.17
TTGCGCACGTGGCGGA	-0.11
AGGGCCACGTGTATTG	0.06
TCTGGCACGTGGTTTA	-0.13
TCGTTCACGTGTTTTT	0.28
ATTGTCACGTGCGGCT	0.11
TGTGGCACGTGGCAAT	-0.25
TGGCACACGTGCTGGG	0.02
AACTGCACGTGGCGGT	0.17
AGTGACACGTGAGGCG	0.17
GTAGGCACGTGAGTGC	0.27
TTTGGCACGTGATATC	0.05
TACGGCACGTGGTGGA	-0.16
AATTTCACGTGGCTGG	0.34
TATTGCACGTGAGCTG	0.05
ATTGACACGTGGCGTG	0
GGGAACACGTGGGTGT	-0.09
GTGTGCACGTGGTTTT	0.06
TTGGGCACGTGTCAAT	-0.18
TTAGTCACGTGTACAG	0.13
TTGCGCACGTGGTTAT	-0.24
GTAAGCACGTGGCGGT	-0.15

Sequence	relative binding free energy [kcal/mol]
AGGATCACGTGGTTCA	0.15
GGCTGCACGTGAAGGG	0.28
GGCGGCACGTGGGCTA	-0.22
GTGATCACGTGGCTGT	0
TATGGCACGTGGAAGG	-0.05
GGCGGCACGTGGCGCG	-0.15
GTAAGCACGTGTGGTG	-0.08
TGGTTCACGTGTGCCG	0.31
TTTTACACGTGATAAA	0.22
TGGTTCACGTGCGAGG	0.31
ATTATCACGTGCTTTT	0.15
CGTTACACGTGTAAGG	0.2
TGTCTCACGTGTAGGG	0.14
GGAGGCACGTGGATAA	0.01
GTTAGCACGTGGGGTC	-0.1
TTACGCACGTGTTTAA	0.04
GCGGCCACGTGGGTTG	-0.19
AGGATCACGTGGGGAT	-0.01
TGTCTCACGTGTCGAT	0.35
GTTGCCACGTGGAGGC	-0.01
TTCATCACGTGGTGGC	0.14
CGGGGCACGTGGCGAT	0.02
GAGGGCACGTGAGGCA	0.12
CGGAGCACGTGATGGG	-0.07
GTAATCACGTGTTAAG	0.21
GGCGCCACGTGTTAGG	0.05

Sequence	relative binding free energy [kcal/mol]
TAATTCACGTGGGTCT	0.16
TATGTCACGTGCTTGG	0.14
TTAATCACGTGTGTGT	0.12
AAATTCACGTGTGGCT	0.17
TTTAACACGTGTTGAT	0.02
TGTGTCACGTGACGTA	0.17
ATGGGCACGTGAGATG	0.14
GGAATCACGTGGGAGG	0.15
GGGAGCACGTGATGCG	0.05
AATGGCACGTGAGGAA	0.03
TGGCCCACGTGGTGTA	-0.18
TTTGTCACGTGATGCG	0.11
GTTGGCACGTGCAGGG	-0.05
TTCGGCACGTGTAGTA	0.03
AGGCTCACGTGGGGGA	0.06
GGGGGCACGTGGAGAC	-0.03
AATTGCACGTGATATT	0.01
AGGGGCACGTGCAGAT	-0.14
TTTACCACGTGTGTGG	0.09
AGGATCACGTGTTAGG	0.17
GTTCCCACGTGTGGGG	-0.03
TGGTACACGTGGTGGG	0.12
TCTAGCACGTGATGGT	0.06
TGTTCCACGTGGGTTC	-0.11
AATAGCACGTGAAGTA	0.34
AAAGTCACGTGTATGG	0.15

Sequence	relative binding free energy [kcal/mol]
ATAGACACGTGGAAGG	0.02
TGTTACACGTGGTCGA	0.14
GTTTACACGTGTTAAG	0.13
GGCGTCACGTGTTTAT	0.24
GTATTCACGTGAGTAA	0.45
CCTGGCACGTGGGGTA	-0.27
CGGTGCACGTGATTTG	0.11
GTTTGCACGTGGTCCT	-0.07
AGACACACGTGGGGTG	-0.28
CATCGCACGTGTGTGG	-0.01
TTACTCACGTGCGGGG	0.15
ACGGGCACGTGTCTGG	0
ATAGTCACGTGTTGTC	0.02
CTGGTCACGTGTGAGA	0.18
GTTTGCACGTGGCGCG	-0.08
CTGGACACGTGCGTGT	0.05
GCTGGCACGTGATCGG	-0.1
TGTATCACGTGGCGTC	0.04
TGTAGCACGTGGTAGT	-0.14
AGGGCCACGTGGTATA	-0.16
TTGTGCACGTGTCAGA	-0.03
TTATGCACGTGAAGGC	0.31
ATTATCACGTGTAGAG	0.24
TCGGGCACGTGTCGTG	-0.21
GACGGCACGTGGTTTT	0.01
TTGGCCACGTGAAGTT	0.23

Sequence	relative binding free energy [kcal/mol]
GATGTCACGTGTTTGG	0.32
GTTGGCACGTGTCTTA	-0.1
GGCATCACGTGGGTCT	0.07
GCGGGCACGTGATGGT	0.09
CGGTACACGTGGGCGT	-0.09
TGTGTCACGTGCTAGT	-0.1
TGTGGCACGTGAGCGT	-0.09
TGGTTCACGTGTCGCA	0.43
TATGTCACGTGGAACG	0.16
TATTTCACGTGAAGGA	0.38
ATTATCACGTGGTTCT	0.05
TGGGGCACGTGCGGCG	-0.16
GGTGCCACGTGGCGCG	-0.17
TTTGGCACGTGGTTCT	-0.09
AGTATCACGTGAAAAT	0.47
GGTGTCACGTGACTGG	0.25
GTGCTCACGTGGGCTG	0.2
AGTGTCACGTGTTCTA	0.05
GTGAACACGTGCGTGT	-0.08
TTGAACACGTGCGGTG	-0.1
GGATGCACGTGCTGCG	-0.1
AGACGCACGTGTAGGG	-0.17
TTTTTCACGTGAACCG	0.57
GAGGGCACGTGTATGA	0.1
AGAGGCACGTGAGACG	0.1
CGTGTCACGTGGCTGT	-0.1

Sequence	relative binding free energy [kcal/mol]
AATGGCACGTGTTGAC	-0.03
TCTGTCACGTGGGTGG	-0.03
ATGTTCACGTGGCGGA	0.05
TTTCTCACGTGAGTGG	0.5
TGTGTCACGTGTGGAT	0.09
TCTTACACGTGGTTTT	0.07
TGATACACGTGATTGG	0.02
GGGAGCACGTGTGGTT	0.03
AGGCGCACGTGGTTTA	-0.08
AATGACACGTGGTTAT	0.05
AGTTTCACGTGCGATT	0.3
TTTGACACGTGAACTT	0.37
GTATTCACGTGAGAGG	0.38
TGCTTCACGTGTTGGT	0.2
CTGGGCACGTGGATAT	-0.07
GTTCTCACGTGGGTGA	0.19
GACAGCACGTGGAGGG	-0.03
TATGACACGTGGGTCT	-0.17
GCGTGCACGTGTAGGG	-0.01
CTATTCACGTGTTGTA	0.12
TTCTGCACGTGCTTTA	0.01
TATATCACGTGTAGTT	0.2
TCATGCACGTGATTTT	0.22
ATGAGCACGTGAGTGC	0.22
CTAGACACGTGGGGGT	-0.07
GCTGACACGTGTAGGG	-0.02

Sequence	relative binding free energy [kcal/mol]
CGTGACACGTGTGGCG	0.01
TTATACACGTGCAGTG	0.06
CAGGTCACGTGCGTTG	0.14
TCGCGCACGTGGGGTG	-0.33
AGCTGCACGTGAAGGA	0.24
GTCTTCACGTGTTGGC	0.38
GTTTACACGTGACGTG	0.29
AATGGCACGTGGGGGG	-0.25
CCTGACACGTGGGTGG	-0.06
TACTTCACGTGCGGTG	0.24
CTTAGCACGTGATATG	0.04
TCGGGCACGTGATGTT	0.07
CGGTGCACGTGGTTTG	-0.03
CTTGTCACGTGGGTTC	0.07
TAGCTCACGTGGTTTG	0.22
GGCGACACGTGCAGGG	-0.05
TGATTCACGTGGGGAT	0.09
CGTTACACGTGTGGAT	0.04
GGAGTCACGTGCGATG	0.16
TGTAGCACGTGAGGGT	0.27
CATTTCACGTGCGGAG	0.46
GGAGACACGTGTGGAA	0.02
TGTGTCACGTGCTGCA	0.04
ATTTGCACGTGTAGCA	-0.03
CGAGGCACGTGCTGGT	-0.12
GTAAACACGTGTTTTT	0.07

Sequence	relative binding free energy [kcal/mol]
GTTTTCACGTGGGGAC	0.28
CTCGTCACGTGGGTTA	-0.09
GTGTACACGTGCTAGG	-0.04
CTGTCCACGTGGTTGG	-0.05
TGCAGCACGTGGGAAT	-0.1
TTGTTCACGTGGTACT	0.16
TAGTCCACGTGTGGGG	0.08
GGTGTCACGTGTCCGG	0.17
TAGCCCACGTGGGTGT	-0.32
GGTTTCACGTGAGAGT	0.38
AGATGCACGTGGGAAG	-0.05
GTACGCACGTGTGAGT	-0.05
GGTGTCACGTGGAGGT	0.14
AGGTGCACGTGTAGCT	0.01
TGTCTCACGTGGTCGT	0.05
AGTGGCACGTGTTGTT	-0.06
GGGAGCACGTGGCGGG	-0.03
GTTTCCACGTGGTGTG	0.09
AGGGCCACGTGGGGTT	-0.17
AAGAGCACGTGGTCTT	-0.13
TCGTTCACGTGTTGCT	0.4
GGGTTCACGTGTCATG	0.28
